In the supplement of paper PMC9151546:
± gives the standard deviation of the averaged measurements. Single values are uncertain, as repeats are few or missing.

Experiments:
CHO-K1 [1] = experiment: micronucleus frequency (% of nucleated events); higher = more micronuclei (genotoxic)
CHO-K1 [2] = experiment: hypodiploid nuclei frequency (% of nucleated events); higher = more hypodiploid events (aneugenic)
CHO-K1 [3] = experiment: relative survival (nuclei to bead ratio vs DMSO control) (% of vehicle control); higher = more surviving cells
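Wherever hypodiploid nuclei frequency (% of nucleated events) is given: hypodiploid nuclei gated on a flow cytometer with 488 nm excitation after SYTOX Green staining, cultures at 37 °C, positive controls vinblastine without S9 and cyclophosphamide with S9.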
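Wherever micronucleus frequency (% of nucleated events) is given: cells lysed with nuclei stained by SYTOX Green, then micronucleus-gated events counted against nucleated events by flow cytometry with 488 nm excitation.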
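Wherever relative survival (nuclei to bead ratio vs DMSO control) is given: Lysed-cell nuclei stained with SYTOX Green and counted against counting beads by flow cytometry at 488 nm excitation, with vinblastine (no S9) and cyclophosphamide (plus S9) as positive controls.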

C/C=C/C=C/C(=O)O [Sorbic acid]
Conditions	hypodiploid nuclei frequency, CHO-K1 [2] [%]	micronucleus frequency, CHO-K1 [1] [%]	relative survival, CHO-K1 [3]
concentration: 4.53 (µM), S9 metabolic activation: with S9, exposure time: 3-4 hours	0.28	1	94
concentration: 4.53 (µM), S9 metabolic activation: without S9, exposure time: 24 hours	0.66	1.32	132
concentration: 5.66 (µM), S9 metabolic activation: with S9, exposure time: 3-4 hours	0.22	0.62	84.2
concentration: 5.66 (µM), S9 metabolic activation: without S9, exposure time: 24 hours	0.62	1.18	135
concentration: 7.07 (µM), S9 metabolic activation: with S9, exposure time: 3-4 hours	0.2	1.46	84.5
concentration: 7.07 (µM), S9 metabolic activation: without S9, exposure time: 24 hours	0.56	1.4	130
concentration: 8.84 (µM), S9 metabolic activation: with S9, exposure time: 3-4 hours	0.24	1.5	93.2
concentration: 8.84 (µM), S9 metabolic activation: without S9, exposure time: 24 hours	0.46	1.28	119
concentration: 11.1 (µM), S9 metabolic activation: with S9, exposure time: 3-4 hours	0.3	1.28	87.8
concentration: 11.1 (µM), S9 metabolic activation: without S9, exposure time: 24 hours	0.96	1.8	136
concentration: 13.8 (µM), S9 metabolic activation: with S9, exposure time: 3-4 hours	0.36	2.02	82.6
concentration: 13.8 (µM), S9 metabolic activation: without S9, exposure time: 24 hours	0.88	1.8	137
concentration: 17.3 (µM), S9 metabolic activation: with S9, exposure time: 3-4 hours	0.26	1.48	110
concentration: 17.3 (µM), S9 metabolic activation: without S9, exposure time: 24 hours	0.72	1.7	119
concentration: 21.6 (µM), S9 metabolic activation: with S9, exposure time: 3-4 hours	0.28	1.74	109
concentration: 21.6 (µM), S9 metabolic activation: without S9, exposure time: 24 hours	0.48	1.36	141
concentration: 27 (µM), S9 metabolic activation: with S9, exposure time: 3-4 hours	0.16	1.26	108
concentration: 27 (µM), S9 metabolic activation: without S9, exposure time: 24 hours	0.48	1.6	118
concentration: 33.7 (µM), S9 metabolic activation: with S9, exposure time: 3-4 hours	0.14	0.96	120
concentration: 33.7 (µM), S9 metabolic activation: without S9, exposure time: 24 hours	0.58	1.84	107
concentration: 42.2 (µM), S9 metabolic activation: with S9, exposure time: 3-4 hours	0.19	0.86	90.5
concentration: 42.2 (µM), S9 metabolic activation: without S9, exposure time: 24 hours	1.3	2.82	115
concentration: 52.7 (µM), S9 metabolic activation: with S9, exposure time: 3-4 hours	0.16	1.14	79.7
concentration: 52.7 (µM), S9 metabolic activation: without S9, exposure time: 24 hours	1.2	3.24	128
concentration: 65.9 (µM), S9 metabolic activation: with S9, exposure time: 3-4 hours	0.21	1.32	58
concentration: 65.9 (µM), S9 metabolic activation: without S9, exposure time: 24 hours	3.64	7.1	80.1
concentration: 82.3 (µM), S9 metabolic activation: with S9, exposure time: 3-4 hours	0.22	1.64	87.8
concentration: 82.3 (µM), S9 metabolic activation: without S9, exposure time: 24 hours	6.98	12.3	55.6
concentration: 103 (µM), S9 metabolic activation: with S9, exposure time: 3-4 hours	0.22	1.46	77.8
concentration: 103 (µM), S9 metabolic activation: without S9, exposure time: 24 hours	9.22	18.4	41.4
concentration: 129 (µM), S9 metabolic activation: with S9, exposure time: 3-4 hours	0.25	2.35	64.7
concentration: 129 (µM), S9 metabolic activation: without S9, exposure time: 24 hours	–	–	34.1
concentration: 161 (µM), S9 metabolic activation: with S9, exposure time: 3-4 hours	0.36	2.32	72.3
concentration: 161 (µM), S9 metabolic activation: without S9, exposure time: 24 hours	3.34	3.6	43.1
concentration: 201 (µM), S9 metabolic activation: with S9, exposure time: 3-4 hours	–	–	37.6
concentration: 201 (µM), S9 metabolic activation: without S9, exposure time: 24 hours	2.11	3.14	40.2

COC(=O)NC(=S)Nc1ccccc1NC(=S)NC(=O)OC [Thiophanate-methyl]
Conditions	hypodiploid nuclei frequency, CHO-K1 [2] [%]	micronucleus frequency, CHO-K1 [1] [%]	relative survival, CHO-K1 [3]
concentration: 4.5 (µM), S9 metabolic activation: with S9, exposure time: 3-4 hours	0.32 ± 0.085	1.82 ± 0.4	86.7 ± 20
concentration: 4.5 (µM), S9 metabolic activation: without S9, exposure time: 24 hours	0.54 ± 0.057	1.32 ± 0.17	97.7 ± 5.6
concentration: 5.63 (µM), S9 metabolic activation: with S9, exposure time: 3-4 hours	0.26 ± 0.028	2.43 ± 1.2	91.5 ± 13
concentration: 5.63 (µM), S9 metabolic activation: without S9, exposure time: 24 hours	0.84 ± 0.085	1.5 ± 0.23	111 ± 18
concentration: 7.04 (µM), S9 metabolic activation: with S9, exposure time: 3-4 hours	0.36 ± 0.028	1.64 ± 0.085	76.1 ± 12
concentration: 7.04 (µM), S9 metabolic activation: without S9, exposure time: 24 hours	0.73 ± 0.042	1.9 ± 0.45	98.6 ± 9.4
concentration: 8.8 (µM), S9 metabolic activation: with S9, exposure time: 3-4 hours	0.26 ± 0.057	1.66 ± 0.34	82.1 ± 5.8
concentration: 8.8 (µM), S9 metabolic activation: without S9, exposure time: 24 hours	1.05 ± 0.014	1.78 ± 0.2	105 ± 9.3
concentration: 11 (µM), S9 metabolic activation: with S9, exposure time: 3-4 hours	0.28 ± 0.14	1.98 ± 0.23	86.6 ± 3.3
concentration: 11 (µM), S9 metabolic activation: without S9, exposure time: 24 hours	0.94 ± 0.14	1.72	104 ± 17
concentration: 13.7 (µM), S9 metabolic activation: with S9, exposure time: 3-4 hours	0.3 ± 0.028	2.01 ± 0.72	95.1 ± 14
concentration: 13.7 (µM), S9 metabolic activation: without S9, exposure time: 24 hours	1 ± 0.2	1.64 ± 0.17	99.1 ± 3
concentration: 17.2 (µM), S9 metabolic activation: with S9, exposure time: 3-4 hours	0.17 ± 0.014	1.77 ± 0.27	92 ± 2.5
concentration: 17.2 (µM), S9 metabolic activation: without S9, exposure time: 24 hours	0.94 ± 0.28	2.57 ± 1.1	91.1 ± 1.8
concentration: 21.5 (µM), S9 metabolic activation: with S9, exposure time: 3-4 hours	0.2 ± 0.028	1.56 ± 0.11	99.9 ± 7
concentration: 21.5 (µM), S9 metabolic activation: without S9, exposure time: 24 hours	1.15 ± 0.071	2.04 ± 0.28	87.3 ± 3
concentration: 26.8 (µM), S9 metabolic activation: with S9, exposure time: 3-4 hours	0.29 ± 0.099	1.07 ± 0.042	87 ± 8.9
concentration: 26.8 (µM), S9 metabolic activation: without S9, exposure time: 24 hours	1.78 ± 0.51	3.08 ± 1.1	95.3 ± 8.9
concentration: 33.6 (µM), S9 metabolic activation: with S9, exposure time: 3-4 hours	0.18 ± 0.028	1.17 ± 0.47	91.2 ± 35
concentration: 33.6 (µM), S9 metabolic activation: without S9, exposure time: 24 hours	2.52 ± 1	4.3 ± 1.4	97.2 ± 12
concentration: 41.9 (µM), S9 metabolic activation: with S9, exposure time: 3-4 hours	0.28	1.51 ± 0.38	76.7 ± 21
concentration: 41.9 (µM), S9 metabolic activation: without S9, exposure time: 24 hours	4.17 ± 1.5	6.07 ± 2.7	76.9 ± 8.1
concentration: 52.4 (µM), S9 metabolic activation: with S9, exposure time: 3-4 hours	0.28 ± 0.028	1.64 ± 0.23	92.9 ± 18
concentration: 52.4 (µM), S9 metabolic activation: without S9, exposure time: 24 hours	6.62 ± 3.3	9.82 ± 3.5	78.6 ± 9.3
concentration: 65.5 (µM), S9 metabolic activation: with S9, exposure time: 3-4 hours	0.26 ± 0.057	1.36 ± 0.11	93.9 ± 34
concentration: 65.5 (µM), S9 metabolic activation: without S9, exposure time: 24 hours	10.1 ± 5.1	14.7 ± 5.6	77.3 ± 2.3
concentration: 81.9 (µM), S9 metabolic activation: with S9, exposure time: 3-4 hours	0.25 ± 0.014	1.4 ± 0.37	90.9 ± 32
concentration: 81.9 (µM), S9 metabolic activation: without S9, exposure time: 24 hours	14.6 ± 4.8	20 ± 5.3	71.5 ± 6.2
concentration: 102 (µM), S9 metabolic activation: with S9, exposure time: 3-4 hours	0.2 ± 0.11	1.54 ± 0.085	91 ± 8.7
concentration: 102 (µM), S9 metabolic activation: without S9, exposure time: 24 hours	17.7 ± 4.8	23.3 ± 5	72.3 ± 3
concentration: 128 (µM), S9 metabolic activation: with S9, exposure time: 3-4 hours	0.27 ± 0.099	1.81 ± 0.75	89.3 ± 25
concentration: 128 (µM), S9 metabolic activation: without S9, exposure time: 24 hours	19.6 ± 3.3	29 ± 5.5	69.2 ± 15
concentration: 160 (µM), S9 metabolic activation: with S9, exposure time: 3-4 hours	0.17 ± 0.042	1.74 ± 1.1	96.4 ± 2.4
concentration: 160 (µM), S9 metabolic activation: without S9, exposure time: 24 hours	20.5 ± 2.1	32.7 ± 2.2	56.2 ± 14
concentration: 200 (µM), S9 metabolic activation: with S9, exposure time: 3-4 hours	0.31 ± 0.042	1.51 ± 0.5	89.7 ± 20
concentration: 200 (µM), S9 metabolic activation: without S9, exposure time: 24 hours	18.13 ± 0.099	37.7 ± 5.9	47.8 ± 3.8
